{"source": "paper PMC12136788", "binders": {"B1": {"name": "chr17:65740002:65740003:+_ENSG00000130935_ENST00000581375|hu_hu|hu_hu_hu_mus_False|8_98 (ssRNA)", "RNA": "GGGAGUUCUACAGUCCGACGAUCAACAAAUCUUUCUCUGGAUGAAGAACAGGAAGAUUCAUAUUAAAAAAAAUAUAUAUCCAUCAAGUUAGGUGUGGUGGCCACACCUUUACUCCCAGCACUUUGGGAAUAUAAUCUCUGAGUCAACAGAGGAUUGAGCAUCA"}, "B2": {"name": "158576357_158589173_189_CDS_ENSG00000122335_ENST00000367104|human|control|control (ssRNA)", "RNA": "GGGAGUUCUACAGUCCGACGAUCUGAUCCAGUAAACUUUAUUAUAUUUCUGAUAUCUCUCCAGUGUGUGCCACUUUUUGGUGGGGAAGUAGAGGUUCCUAUUCUUCUGCAACAGAUGACGCAAUAAGCAGCCAGGGACAUUCUCAACAGAGGAUUGAGCAUCA"}, "B3": {"name": "chr3:176740097:176740098:-_ENSG00000177565_ENST00000430069|hu_mus|hu_hu_hu_mus_True|8_108 (ssRNA)", "RNA": "GGGAGUUCUACAGUCCGACGAUCUGUUUUUUACACCACAAAAGGAGGCACUUUCAGUAUCUGCAAAAGGUGUUUAGUCCUAAAACAUACUCACCUAGAGGAUAACUCAGGAAAACAAUCUGUUACACUAGUAUCUAUACUCCACAACAGAGGAUUGAGCAUCA"}, "B4": {"name": "42175435_42175555_2497_3pUTR_ENSMUSG00000061080_ENSMUST00000099761|mouse|control|control (ssRNA)", "RNA": "GGGAGUUCUACAGUCCGACGAUCUGGGGCUCAGCCUUUAUAAAGCUAUGAAACUGAUGGAUUCUCCAGGCUUGCACACUGAGAGUGAAAUCAGCGACCAUCUUCCUCCCCUAGGUGAUAUUAUGCAGGCCACGGGUCUGUUCCCAACAGAGGAUUGAGCAUCA"}, "B5": {"name": "125327386_125328085_3497_3pUTR_ENSMUSG00000030655_ENSMUST00000032891|mouse|control|control (ssRNA)", "RNA": "GGGAGUUCUACAGUCCGACGAUCAGUUACUUCCAAUUCACUCCCCUGAGUUAGACUAUUUGUUUUCAUUUCAGUAAGUAAGUCAAAGCCGUGCCUCACUGUCACUGCAGGCUGACCUGCCAACAAUCCAACCCUCAUGAUGGACAACAGAGGAUUGAGCAUCA"}, "B6": {"name": "chr2:104430793:104430794:+_ENSMUSG00000027176_ENSMUST00000028599|mus_mus|FALSE|FALSE (ssRNA)", "RNA": "GGGAGUUCUACAGUCCGACGAUCCGUCUCCUGACAUGGCCUCGGGGGACUACAACGUACGCACCAGCCGGCAAAGGGAAGCUAGAAAAGGAAAAUUAAACUAAAGGCAAACCCCACCAAAACCAGGAACACUACCCCUGUCCCCAACAGAGGAUUGAGCAUCA"}, "B7": {"name": "chr12:69233606:69233607:+_ENSG00000135679_ENST00000462284|hu_hu|FALSE|FALSE (ssRNA)", "RNA": "GGGAGUUCUACAGUCCGACGAUCUCUAAAUUCCUAGGGUUAUAUAGUUAGAAAUAUAUAAUUCUCUUAUAGACAGGUCAACUAGGGGAAAUAAGUUAGCACAAUCAUUUGAAUUGGUUGUCUACAUACUGGGCAGGGCUUAUUCAACAGAGGAUUGAGCAUCA"}, "B8": {"name": "chr1:167535829:167535830:-_ENSMUSG00000026566_ENSMUST00000068705|mus_hu|motif|central (ssRNA)", "RNA": "GGGAGUUCUACAGUCCGACGAUCAGGAGGGUUUUUGACAUCACAGAUAUAGGUGCCAUUGUGUAUAAACUGCAUAUUUUCGGUGUUGAUUGAUGCAUCUUUCUUGUCAAGGUCUCCAGCCCAGCUGAUUCUGUCUUUAAAUGGCAACAGAGGAUUGAGCAUCA"}, "B9": {"name": "32520443_32521279_2648_CDS_ENSMUSG00000014496_ENSMUST00000014640|mouse|control|control (ssRNA)", "RNA": "GGGAGUUCUACAGUCCGACGAUCAUCUGCACUAGCACUGCUAACCAGCAUCUCAACUGUAUUGGUUUGUCCGUUUUCUGCAGCCAUCAUGAGAGGUGUUUUUCCGGUAGAGUCUGCGGAAUUGACCUGAGCAUUCUGGCUGAGCAACAGAGGAUUGAGCAUCA"}, "B10": {"name": "chr13:110848956:110848957:-_ENSMUSG00000021700_ENSMUST00000167824|mus_mus|FALSE|FALSE (ssRNA)", "RNA": "GGGAGUUCUACAGUCCGACGAUCAGACAAACCAACACUAGAGUUCUUGGGAGUGUUUUCCGAAGCAGUUAGGGUUGUUCUAAAAACAAUGGAUGGGCAGGGGUACCCAGAUGACCACAGGGGAGGGCAAUGACACACUUAAAACAACAGAGGAUUGAGCAUCA"}, "B11": {"name": "chr20:17594467:17594468:-_ENSG00000125844_ENST00000246043|hu_mus|FALSE|FALSE (ssRNA)", "RNA": "GGGAGUUCUACAGUCCGACGAUCCCUCUGAGAACUCACCACCUGGCCUGUUGCUUCCCAACCUGGCCCCACUGAGAAAUACAGACAAUUGCACUGAUUGACAUAAACCCCGAGAGUCCUGGACUCCCAGCACACCCUGGUCUGCAACAGAGGAUUGAGCAUCA"}, "B12": {"name": "chr6:79679595:79679596:-_ENSG00000146247_ENST00000275034|hu_hu|motif|central (ssRNA)", "RNA": "GGGAGUUCUACAGUCCGACGAUCUAUAUUCCAUCGCCUGUAUUUUGCAUCAUCAAAUUGUUGUCUCAAGACUAGGAAAUCGGUAACGUCAGGCAUAUCAUGGUAUUUCAUGGUAAAUGAUCCGCCAGUCAGUUUACCAGUAUCCAACAGAGGAUUGAGCAUCA"}, "B13": {"name": "chr11:79252212:79252213:+_ENSMUSG00000020716_ENSMUST00000071325|mus_mus|motif|central (ssRNA)", "RNA": "GGGAGUUCUACAGUCCGACGAUCAGUAGCAGACAUUUCACAUCCUACUCCAUAAAGGUAGAGAGAAUGACAGGAGCUUCGGUCUGCCUGCUUAUUUUUAAGAAGAAAUUUAUUUCUGCAGAUCAGAAUUUCCCGUAACCACUUCAACAGAGGAUUGAGCAUCA"}, "B14": {"name": "chr1:130485734:130485735:-_ENSMUSG00000045382_ENSMUST00000052172|mus_mus|mus_mus_mus_hu_False|68_68 (ssRNA)", "RNA": "GGGAGUUCUACAGUCCGACGAUCGAUGAAGGAGUCGAUGCUGAUCCCAAUGUAGUAAGGCAGCCAACAGGCAAAGAAAGCCAGGAUGAGGAUGACUGUGGUCUUGAGGGCCUUGCGCUUCUGGUGGCCCUUGGAGUGUGACAGCAACAGAGGAUUGAGCAUCA"}, "B15": {"name": "chr1:87369078:87369079:-_ENSG00000183291_ENST00000370554|hu_mus|FALSE|FALSE (ssRNA)", "RNA": "GGGAGUUCUACAGUCCGACGAUCCAGAUUAAACUGUCCAAGAAGAUCGCAAGAGCUGCAGAGCAAGUUGCUGGAGAAACCCAACUCUCUGCAUGCCUCUGACGCAAACUCUGCCCCCAGAGCAGACGCCGCUUGAAACGCAGUCAACAGAGGAUUGAGCAUCA"}, "B16": {"name": "155408674_155408794_5690_CDS_ENSG00000116539_ENST00000392403|human|control|control (ssRNA)", "RNA": "GGGAGUUCUACAGUCCGACGAUCUCGGUCCUUGCUGUGGCUACGGCCUGGACUGGAAGAAGGUGGUGCAGAGGCAGUUGCAAUCACAGCAUCAAUACUUUUCUCCAUGGGCUCUUGGUCCUCAUUUUGUACCAUCCGCUGCAGCAACAGAGGAUUGAGCAUCA"}, "B17": {"name": "chr7:125879632:125879633:+_ENSMUSG00000033904_ENSMUST00000106557|mus_hu|FALSE|FALSE (ssRNA)", "RNA": "GGGAGUUCUACAGUCCGACGAUCGCAAUAUUCUUAUCCGGAAAUCUGGAUUUAUUAUUAUAUAGCCCUUUAUUCUCUCCUAAAUCAAGCAUGCUAGAAAAAACAGACUAUGAAGAACAAAAUAUACAGACUAAAUAGAAAAUACAACAGAGGAUUGAGCAUCA"}, "B18": {"name": "chr19:16212804:16212805:+_ENSG00000167460_ENST00000300933|hu_mus|FALSE|FALSE (ssRNA)", "RNA": "GGGAGUUCUACAGUCCGACGAUCAACAAUUCUGGAGUGAAGGAAAGAUGUAACAUGGAACAGCAUUAAAGCUCAGUCAGAAGGCACAUGGGCAACAAUGAUCACCCCAGCAUUCUCGCUUGGAAUGCUUAAAGACAAUCUGUUCAACAGAGGAUUGAGCAUCA"}, "B19": {"name": "84417517_84417637_166_CDS_ENSG00000065609_ENST00000520302|human|control|control (ssRNA)", "RNA": "GGGAGUUCUACAGUCCGACGAUCGUCCAGGUGCUUUUUCUUGGGGCCCAUUACUUCAUGAGUAGUGGCUUUGCAGACCGCUCUUGCUACAGCAGAGCCUGUAACGCUGUACUGAGCGGCGGCGAUCCGAUCCGUGAGCGUUUGCAACAGAGGAUUGAGCAUCA"}, "B20": {"name": "chr17:61655871:61655872:+_ENSG00000136485_ENST00000310827|hu_hu|motif|central (ssRNA)", "RNA": "GGGAGUUCUACAGUCCGACGAUCGGUGGGGUAUGGGUGGUCAAAGGUGUUUCUGCAAAUAAACUCUGAACUCUCCUCAUCGGAACCAACAAGCUGAACCUUGUUGUUGUACUCCUCCACGAAGCUGCCCAGCGCCAAGCGAAACAACAGAGGAUUGAGCAUCA"}, "B21": {"name": "chr3:55862657:55862658:-_ENSMUSG00000027799_ENSMUST00000029374|mus_hu|motif|central (ssRNA)", "RNA": "GGGAGUUCUACAGUCCGACGAUCUGAUGAUUCCAGGCAGAGCUGAGCAUCAGUGGCCUUAGCAUUAUAUGUAAAGGCAAUGCGGCUUGCAAGUUUCCCAUCAUAUAACACCUGUUUAUGAUGUUCUGCCAAAUGAAUAUCACUCAACAGAGGAUUGAGCAUCA"}, "B22": {"name": "60582714_60582834_601_CDS_ENSMUSG00000026014_ENSMUST00000140485|mouse|control|control (ssRNA)", "RNA": "GGGAGUUCUACAGUCCGACGAUCGGAGUAGUUAGCAUGGGAAGGUUUAGUUGUUCUAUUAGAGGAAGAUGACGGUCCUCUCAGGGUGCCAUGUUUUGACGUAUGUCGGCCAGCAGGUAGCUUCUGAGGAACUUUUGGUUCUGUCAACAGAGGAUUGAGCAUCA"}}, "note": "This is one part of the list.", "data": [{"target": "T1, UNK ZnF1-3 (human, UniProt Q9C0B0 31-174)", "T1 sequence": "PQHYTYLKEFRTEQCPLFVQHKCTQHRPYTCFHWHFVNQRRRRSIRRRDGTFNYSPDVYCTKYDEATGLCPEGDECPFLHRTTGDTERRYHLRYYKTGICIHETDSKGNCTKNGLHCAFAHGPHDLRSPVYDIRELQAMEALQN", "test": "nsRBNS (natural sequence RNA bind-n-seq); RBNS binding buffer (assumed for nsRBNS): 25 mM Tris pH 7.5, 150 mM KCl, 3 mM MgCl2, 0.01% Triton X-100, 500 ug/ml BSA, 20 U/ml SUPERase-In, 4 C; UNK is unkempt and MSI1 is Musashi-1; names of the RNAs are library labels; protein concentration not given here; high values mean tight binding", "units": {"binding signal": "enrichment R"}, "values": [{"binder": "B1", "binding signal": 1.68}, {"binder": "B2", "binding signal": 1.24}, {"binder": "B3", "binding signal": 0.756}, {"binder": "B4", "binding signal": 1.14}, {"binder": "B5", "binding signal": 0.4}, {"binder": "B6", "binding signal": 1.98}, {"binder": "B7", "binding signal": 1.86}, {"binder": "B8", "binding signal": 0.58}, {"binder": "B9", "binding signal": 0.31}, {"binder": "B10", "binding signal": 2.17}, {"binder": "B11", "binding signal": 1.16}, {"binder": "B12", "binding signal": 0.982}, {"binder": "B13", "binding signal": 0.983}, {"binder": "B14", "binding signal": 1.33}, {"binder": "B15", "binding signal": 0.762}, {"binder": "B16", "binding signal": 1.04}, {"binder": "B17", "binding signal": 3.18}, {"binder": "B18", "binding signal": 1.2}, {"binder": "B19", "binding signal": 0.552}, {"binder": "B20", "binding signal": 1.03}, {"binder": "B21", "binding signal": 0.9}, {"binder": "B22", "binding signal": 0.94}]}]}
